Reference: article PMC12136788
The other results are listed elsewhere or left out.

B1: chr6:135286264:135286265:-_ENSG00000112339_ENST00000367826|hu_mus|motif|central (ssRNA)
RNA: GGGAGUUCUACAGUCCGACGAUCCUCUGGCAGCUGGCAACUGGGAAGUUUUGCAGAGUAAUCCUUAAUACUUGUUGGCAGCGGACUGUACUUUAGUGUCUCUCAUCUAACAAUCAUGACUGCAUGCUGUUUCCUUAGCUGCACCAACAGAGGAUUGAGCAUCA
B2: chr2:179515052:179515053:+_ENSMUSG00000000305_ENSMUST00000000314|mus_hu|mus_mus_mus_hu_False|1_38 (ssRNA)
RNA: GGGAGUUCUACAGUCCGACGAUCGCUGUCCCAUGCAGUCACCGUGAACGCCACCUGCUCGGAGGGGACCUGCAGCUCCCGGGUGGCGAAGACUGUCCCAUCCGCCCCAACUUUGAAGUCCAUGCUGUUGGUCUCAUACUGCAUCAACAGAGGAUUGAGCAUCA
B3: chr2:148695906:148695907:-_ENSG00000115947_ENST00000542387|hu_hu|motif|central (ssRNA)
RNA: GGGAGUUCUACAGUCCGACGAUCGACCAUUUGAAAAUUAAAUGGCUCUUCCUCAUAGAUGUCAUUUAAAUGUUUCAUUGCGGUUAUAAGACAGAUUUCCAAGACUGAUAGACCAUGUACAAUAUUUGCUUUCGAGUCCAUGCUCAACAGAGGAUUGAGCAUCA
B4: chr12:57064132:57064133:-_ENSG00000110958_ENST00000262033|hu_hu|motif|central (ssRNA)
RNA: GGGAGUUCUACAGUCCGACGAUCAGACAUGUCUUCAUCUGAAUCAUCUUCCCAGUCUUUCCAAUUAUUGAAGUCGACACGGAGCCAAUUAAGCUUUGCCCUUUCUUUUGUUAACCUUGGCCAUGACUGGCCAGAUUCUCCUUUCAACAGAGGAUUGAGCAUCA
B5: chr16:17043922:17043923:+_ENSMUSG00000063358_ENSMUST00000069107|mus_hu|FALSE|FALSE (ssRNA)
RNA: GGGAGUUCUACAGUCCGACGAUCAGGGCUGCCAGGAGGAAUUCUCUGGACUGAAGAAAUUCUUUGAAAGCAUAAAAGCCACAACUACCAGAAACCGCCCCUCCAAACGGCUCAAAGGAGUCAAAGUGGAUAAGCCAAGACGGGCAACAGAGGAUUGAGCAUCA
B6: chr14:102349618:102349619:+_ENSG00000078304_ENST00000445439|hu_mus|FALSE|FALSE (ssRNA)
RNA: GGGAGUUCUACAGUCCGACGAUCUACAAACUUCUGAUCAAUAUAUUUCUUUGCUAUAUUGGGUUGGAAAUCUGGAGACUCUAAAAAUCUUAAGAAAAAUUCAUAAACAAGCUGCAGAUGAGGCCAGGCUGCUUCUAACGUUGGCAACAGAGGAUUGAGCAUCA
B7: chr9:59598888:59598889:+_ENSMUSG00000039585_ENSMUST00000128341|mus_mus|motif|central (ssRNA)
RNA: GGGAGUUCUACAGUCCGACGAUCGGACUGGGCAGGCACAUCCCCCGCCGCACCCCGCCCAGAGAGCACGCGUUGGAAGCGGAACCGCGGUCCCUGCUUUUGCCCGGGGACCGGUAUCUCCGCCGCAGUCCCUCCCCGUCCUGCCAACAGAGGAUUGAGCAUCA
B8: chr14:21319500:21319501:-_ENSMUSG00000021816_ENSMUST00000161445|mus_mus|FALSE|FALSE (ssRNA)
RNA: GGGAGUUCUACAGUCCGACGAUCGAGCUGUACUCCAGGGCAUGAGGGAAGCAGGCCACCAAAGUAAAGGGAAAUACCAAACUACAGUGGUAAUCAGUACAGGUCAGUCACUGUAAAAUUAGCACAUGGUUCCAUUUAGUUUAACAACAGAGGAUUGAGCAUCA
B9: chr8:106942660:106942661:-_ENSMUSG00000035770_ENSMUST00000041769|mus_mus|motif|central (ssRNA)
RNA: GGGAGUUCUACAGUCCGACGAUCCUUUUGUAUCAAGGUUUCAAAAUCACACUAUUAGGCAGUGUCUUUGCAAGAAUUCCGGGUUUCUGAGGUCAUUCACUUUGCCCUGGCUGCUACGGAGAUCAGUUGACCCUCCAUCAUGGUCAACAGAGGAUUGAGCAUCA
B10: chr14:21343058:21343059:-_ENSMUSG00000021816_ENSMUST00000161445|perfect_dup|motif|central (ssRNA)
RNA: GGGAGUUCUACAGUCCGACGAUCUGUAGUUUGACUUUUUCUGUACAUUCUAUAGCCUGCAUCUUGAGCUUCAUGAGCUCGGAUAAUCGAUAACAAAUUAUUGUUUUGCAAAAAUUCACACACUGCUGGAUAGUUAUAAAAAUACAACAGAGGAUUGAGCAUCA
B11: chr7:136912681:136912682:-_ENSG00000105894_ENST00000348225|hu_hu|FALSE|FALSE (ssRNA)
RNA: GGGAGUUCUACAGUCCGACGAUCAAACGCUACUACAAAAAUUUUCUUUUCUUUUUGUUUUUGCUUAUUGUGUACUUAGCUAUAGAUAAUUUUUGAAUACAAAGCCUACGGUACAUAUAAAUGCAAUAGUUAACUGAUCCUGUUCAACAGAGGAUUGAGCAUCA
B12: chr16:94664741:94664742:+_ENSMUSG00000040785_ENSMUST00000117648|mus_hu|mus_mus_mus_hu_False|18_48 (ssRNA)
RNA: GGGAGUUCUACAGUCCGACGAUCUGGUACUGAUCUUGGUAGCUGAUAUUCAGGAGAAAGGCUGGCCAAGGGUGUAUAUAUGCUGGUGAACUGCGACAAACCUGGUAACACGUUUAUGUACGCUGGUGGUGUCUGGGUGAUAUCCAACAGAGGAUUGAGCAUCA
B13: chr15:75216061:75216062:-_ENSG00000178741_ENST00000564811|perfect_dup|motif|central (ssRNA)
RNA: GGGAGUUCUACAGUCCGACGAUCUUUGUCAAGGCCCAGCUCCUCUGGAGUGGAGAUUCCCAAUUCAUUUAAAGUUGGUCGGAGUUCCUGGAUGACAUAGGGAUAGAUUUCCUUAUGAGGUCCUGCUUUGUCCUUAACAACCUCCAACAGAGGAUUGAGCAUCA
B14: chr16:32386223:32386224:+_ENSMUSG00000053774_ENSMUST00000115151|mus_hu|FALSE|FALSE (ssRNA)
RNA: GGGAGUUCUACAGUCCGACGAUCACUCUAAUUUGAUUUUGGGUUUUGUUGGCAGAAAAAGCCCAAGACAUCUGAAAAUUACUAGUAACCUCCGCCAUCCUCCUUACUAAAUGUUGUCUUCUGAAUGGAGUUGAAAGGUCUUCCCAACAGAGGAUUGAGCAUCA
B15: 118281626_118282927_3670_CDS_ENSMUSG00000005102_ENSMUST00000005233|mouse|control|control (ssRNA)
RNA: GGGAGUUCUACAGUCCGACGAUCCCCACAGUGUAGGAGUAUUGCCUUCAGAAGCAUCGUAUGGUUCAAGUAAAUGCUGUAAUUCCUUUCCUGAAGUGCAGGAAACUCCUGGAUUAUUUCAUAGAUGGUGUAGAUGGUUUCGGCCAACAGAGGAUUGAGCAUCA
B16: chr9:58049150:58049151:-_ENSMUSG00000051243_ENSMUST00000114144|mus_mus|FALSE|FALSE (ssRNA)
RNA: GGGAGUUCUACAGUCCGACGAUCACUUGCAGUGUGAUGCUGUGGGGCUGCGAGCCGGUCUCCAGACUCAGGUGACAGUCUAAGGGAGCUUCUGGCAUCUGUUGCCCGUCUUCAACCCUGCAGAACCCAGUGCCGGUCCAGACACAACAGAGGAUUGAGCAUCA
B17: 190530966_190531086_581_CDS_ENSG00000138381_ENST00000260952|human|control|control (ssRNA)
RNA: GGGAGUUCUACAGUCCGACGAUCAUUCCAUAGAAACACAUUGCCUCUUUCAUCUUCCACAGGCUGGGUAGUCAAAACACCCCUCAAGUGUAGGACGUGAGCAGAAAAUAAACACUGGUAGUUAACAUCAGACUUUAACAAUUGCAACAGAGGAUUGAGCAUCA
B18: chr1:60041781:60041782:+_ENSMUSG00000041040_ENSMUST00000036540|mus_hu|mus_mus_mus_hu_False|8_38 (ssRNA)
RNA: GGGAGUUCUACAGUCCGACGAUCAAGUUUACAAUAGUAAAGUAAAUGCAGUAGUGGCAAAUUUUCUUUUAUUUUCCUUCACAAAAGAAAAUCUUUAGAUCUCAGUUCUAGUCUUGGACAUAGUGAAUCUCCAUGGGUCUGACUCAACAGAGGAUUGAGCAUCA
B19: chr7:141450121:141450122:+_ENSG00000106028_ENST00000265304|hu_mus|hu_hu_hu_mus_True|8_88 (ssRNA)
RNA: GGGAGUUCUACAGUCCGACGAUCUCAUCCGUUCUAUGCCUUUUCUUUCGUCUGGUCACUCAGAAAUAUAAUGUUAUCAGCUAUGAUUGUUGUUGCUUGCCGCCUCACAUUGUUUUUAUCCAUGUACUCACCAUAGUCCACUUUCAACAGAGGAUUGAGCAUCA
B20: chrX:165757501:165757502:-_ENSMUSG00000031352_ENSMUST00000112115|mus_mus|motif|central (ssRNA)
RNA: GGGAGUUCUACAGUCCGACGAUCAGCAGGAGAAGAUGCUGAGGCACCCAUGGCUGGAAUCACAGGGGUCACUCCCAAUCGGAAAUACCCAGCAAAACGGGAGGCAAGGAGCGGCGAAGGGCAGGAAGCCACCAGUGUUGCCUUCAACAGAGGAUUGAGCAUCA
B21: 48040933_48045964_2092_CDS_ENSG00000138081_ENST00000403359|human|control|control (ssRNA)
RNA: GGGAGUUCUACAGUCCGACGAUCAUUAUAAACUAGAAUUCCACCAUUCUGUCCUCCCCAGAUUUUGUUGCGUCUAAUUUUGGGGUUGCUUCCAGUCCUUAUCUGAACCCCUGAAUACAUAUGAUUAUAGAUAUCAUUGUCUUCCAACAGAGGAUUGAGCAUCA
B22: chr5:173380165:173380166:+_ENSG00000113742_ENST00000334035|hu_hu|FALSE|FALSE (ssRNA)
RNA: GGGAGUUCUACAGUCCGACGAUCCACCCGUUUAUCUAUCUCUCCAUGCUGCAGCUGAACAAAGCGGGCACUGAUAGCAGCUAUGUAACUCUGUUGAUUAGAGAACGCAACUCUCCCAGCUCCUUUUGGGUAUUUUAGCUCAGGCAACAGAGGAUUGAGCAUCA

Biological target: T1, UNK ZnF1-3 (human, UniProt Q9C0B0 31-174)
T1 sequence: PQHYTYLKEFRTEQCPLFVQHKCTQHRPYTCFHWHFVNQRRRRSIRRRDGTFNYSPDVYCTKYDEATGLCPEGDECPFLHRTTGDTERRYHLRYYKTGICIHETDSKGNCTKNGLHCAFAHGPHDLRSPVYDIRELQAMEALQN
Assay: nsRBNS (natural sequence RNA bind-n-seq); RBNS binding buffer (assumed for nsRBNS): 25 mM Tris pH 7.5, 150 mM KCl, 3 mM MgCl2, 0.01% Triton X-100, 500 ug/ml BSA, 20 U/ml SUPERase-In, 4 C; UNK is unkempt and MSI1 is Musashi-1; names of the RNAs are library labels; protein concentration not given here; high values mean tight binding

| Binder | binding signal [enrichment R] |
| --- | --- |
| B1 | 0.897 |
| B2 | 0.785 |
| B3 | 0.775 |
| B4 | 0.574 |
| B5 | 1.6 |
| B6 | 1.76 |
| B7 | 1.07 |
| B8 | 1.28 |
| B9 | 0.807 |
| B10 | 1.06 |
| B11 | 0.567 |
| B12 | 0.999 |
| B13 | 0.656 |
| B14 | 1.45 |
| B15 | 1.59 |
| B16 | 0.697 |
| B17 | 1.02 |
| B18 | 0.405 |
| B19 | 0.492 |
| B20 | 1.56 |
| B21 | 0.735 |
| B22 | 0.884 |
